This note sets out measurements from US10300036B2, “Compositions and methods for treating and preventing lung injury” (ARIZONA BOARD OF REGENTS on behalf of THE UNIVERSITY OF …, priority 2015, dated 2019).

The test system of this test is NRF2 transcriptional activity.
Where [1] appears, read: H1299, 16 h, SF 5 μM, tBHQ 50 μM, As(III) 5 μM, bixin 40 μM.

Like-named read-outs stand apart in the source and are kept apart here.

`C[S+]([O-])CCCCN=C=S` (stereo not shown) [SF, sulforaphane]: under setting [1], the “NRF2 transcriptional activity, KEAP1-C151S cells” value is recorded as “inhibited” and the “NRF2 transcriptional activity, KEAP1-WT cells” value was “enhanced”.

Regarding `COC(=O)/C=C/C(C)=C\C=C\C(C)=C\C=C\C=C(C)\C=C\C=C(C)\C=C\C(=O)O` [bixin, Bixin], under setting [1], the “NRF2 transcriptional activity, KEAP1-C151S cells” value is “inhibited” and the “NRF2 transcriptional activity, KEAP1-WT cells” value is on record as “enhanced”.

As to `CC(C)(C)c1cc(O)ccc1O` [tBHQ, tert-butylhydroquinone], under setting [1], the “NRF2 transcriptional activity, KEAP1-C151S cells” value is listed as “inhibited” and the “NRF2 transcriptional activity, KEAP1-WT cells” value is reported as “enhanced”.

Turning to sodium arsenite [As(III)], the “NRF2 transcriptional activity, KEAP1-WT cells” value is “enhanced”.
